In the supplement of paper PMC4967469:
Lines with a small IC50 respond at low doses; where the fit passes the top or lowest dose, that dose stands as a limit. AUC is the area under the same curve over the 256-fold range up to the top dose, as a fraction: 1 means no effect, lower means more sensitive. An inferred top dose was derived from the fitted curves, not read from the paper. For some assays here: Where an entry number is given, a second screen of the drug exists; the two often differ.

Tests used:
Assay in all cases: Viability of human cancer cell lines after 72 h of drug (GDSC screen)
MLN4924 = compound: NS(=O)(=O)OC[C@@H]1C[C@@H](n2ccc3c(N[C@H]4CCc5ccccc54)ncnc32)C[C@@H]1O [MLN4924]; details: top dose 1 µM; top dose inferred
Protocol: (§1)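 Human cancer cell lines in 384-well plates, medium with 10% serum, drug for 72 h over a 256-fold dose range (nine 2-fold or five 4-fold steps up to the top dose). Adherent lines were fixed and stained with the nucleic acid dye Syto60, suspension lines read with resazurin; signal relative to control wells, capped at 0 and 100%. One two-parameter sigmoid per drug and line, fitted in a mixed model over all curves with the slope shared within a line.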

BMN-673 = compound: Cn1ncnc1[C@H]1c2n[nH]c(=O)c3cc(F)cc(c23)N[C@@H]1c1ccc(F)cc1 [BMN-673]; details: top dose 10 µM; top dose inferred
Protocol: as §1

XMD11-85h = compound: COc1cc(C(=O)NC2CCN(C)CC2)ccc1Nc1ncc2c(n1)N(C1CCCC1)CCC(=O)N2C(C)C [XMD11-85h]; details: top dose 10 µM; top dose inferred
Protocol: as §1

AZD6482 = compound: Cc1cc([C@@H](C)Nc2ccccc2C(=O)O)c2nc(N3CCOCC3)cc(=O)n2c1 [AZD6482]
Protocol: as §1

[1] = top dose 5 µM, screen: GDSC drug entry 1066, top dose inferred
[2] = top dose 5.12 µM, screen: GDSC drug entry 156

Cell Line | AUC (MLN4924) | IC50 (MLN4924) [µM] | AUC (BMN-673) | IC50 (BMN-673) [µM] | AUC (XMD11-85h) | IC50 (XMD11-85h) [µM] | AUC (AZD6482; [1]) | IC50 (AZD6482; [1]) [µM] | AUC (AZD6482; [2]) | IC50 (AZD6482; [2]) [µM]
NCI-H841 (small cell lung carcinoma, adherent) | 0.728 | 0.279 | 0.83 | 6.32 | 0.982 | > 10 | 0.958 | > 5 | 0.945 | > 5.12
NCI-H847 (small cell lung carcinoma, adherent) | 0.415 | 0.0383 | 0.98 | > 10 | 0.962 | > 10 | 0.982 | > 5 | 0.943 | > 5.12
NCI-H1155 (large cell lung carcinoma, suspension) | 0.871 | 0.668 | 0.782 | 3.43 | 0.985 | > 10 | 0.909 | 4.81 | 0.993 | > 5.12
NCI-H1304 (small cell lung carcinoma, suspension) | 0.966 | > 1 | 0.981 | > 10 | 0.951 | > 10 | 0.971 | > 5 | 0.958 | > 5.12
NCI-H1355 (lung adenocarcinoma, adherent) | 0.851 | > 1 | 0.808 | 8.32 | 0.929 | > 10 | 0.867 | > 5 | 0.895 | > 5.12
NCI-H1395 (lung adenocarcinoma, adherent) | 0.911 | > 1 | 0.61 | 1.39 | 0.969 | > 10 | 0.746 | 2.05 | 0.938 | > 5.12
NCI-H1436 (small cell lung carcinoma, suspension) | 0.984 | > 1 | 0.982 | > 10 | 0.984 | > 10 | 0.892 | > 5 | 0.944 | > 5.12
NCI-H1568 (lung adenocarcinoma, adherent) | 0.839 | 0.942 | 0.872 | > 10 | 0.938 | > 10 | 0.862 | > 5 | 0.898 | > 5.12
NCI-H1623 (lung adenocarcinoma, adherent) | 0.758 | 0.419 | 0.439 | 0.409 | 0.983 | > 10 | 0.8 | 3.08 | 0.927 | > 5.12
NCI-H1648 (lung adenocarcinoma, adherent) | 0.748 | 0.341 | 0.936 | > 10 | 0.983 | > 10 | 0.805 | 2.71 | 0.883 | > 5.12
NCI-H1651 (lung adenocarcinoma, adherent) | 0.851 | 0.857 | 0.321 | 0.189 | 0.982 | > 10 | 0.883 | > 5 | 0.913 | > 5.12
NCI-H1688 (small cell lung carcinoma, adherent) | 0.955 | > 1 | 0.967 | > 10 | 0.985 | > 10 | 0.972 | > 5 | 0.98 | > 5.12
NCI-H1770 (non-small cell lung carcinoma, suspension) | 0.992 | > 1 | 0.989 | > 10 | 0.99 | > 10 | 0.978 | > 5 | 0.964 | > 5.12
NCI-H1792 (lung adenocarcinoma, adherent) | 0.986 | > 1 | 0.561 | 0.899 | 0.966 | > 10 | 0.983 | > 5 | 0.951 | > 5.12
NCI-H1915 (large cell lung carcinoma, adherent) | 0.946 | > 1 | 0.797 | 4.8 | 0.986 | > 10 | 0.988 | > 5 | 0.965 | > 5.12
NCI-H1944 (lung adenocarcinoma, adherent) | 0.923 | > 1 | 0.802 | 5.3 | 0.944 | > 10 | 0.885 | > 5 | 0.944 | > 5.12
NCI-H1975 (lung adenocarcinoma, adherent) | 0.964 | > 1 | 0.896 | > 10 | 0.98 | > 10 | 0.957 | > 5 | 0.827 | 3.77
NCI-H1993 (lung adenocarcinoma, adherent) | 0.975 | > 1 | 0.938 | > 10 | 0.978 | > 10 | 0.824 | 4.34 | 0.896 | > 5.12
NCI-H2066 (small cell lung carcinoma, adherent) | 0.913 | > 1 | 0.916 | > 10 | 0.977 | > 10 | 0.956 | > 5 |  | 
NCI-H2110 (non-small cell lung carcinoma, adherent) | 0.734 | 0.296 | 0.747 | 3.26 | 0.961 | > 10 | 0.947 | > 5 | 0.886 | > 5.12
NCI-H2141 (small cell lung carcinoma, suspension) | 0.99 | > 1 | 0.99 | > 10 | 0.99 | > 10 | 0.984 | > 5 | 0.958 | > 5.12
NCI-H2291 (lung adenocarcinoma, adherent) | 0.858 | > 1 | 0.821 | 8.95 | 0.982 | > 10 | 0.683 | 1.24 | 0.984 | > 5.12
NCI-H2347 (lung adenocarcinoma, adherent) | 0.811 | 0.678 | 0.88 | > 10 | 0.918 | > 10 | 0.828 | 4.01 | 0.897 | > 5.12
NCI-SNU-5 (stomach, suspension) | 0.943 | > 1 | 0.797 | 4.81 | 0.987 | > 10 | 0.786 | 2.19 | 0.979 | > 5.12
NCI-SNU-16 (stomach, suspension) | 0.935 | > 1 | 0.978 | > 10 | 0.932 | > 10 | 0.98 | > 5 | 0.991 | > 5.12
